In PMC4336329 (PLoS ONE, 2015):
Out of some 310,000 compounds screened, about 14,000 (4.5%) showed an effect of 50% or more. The effect is printed as a negative number. This is one part of the list.

Target: human ether-à-go-go-related gene (hERG) potassium channel (human, UniProt Q12809)
Assay: primary screen, population patch clamp on CHO cells stably expressing hERG
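Note: peak tail current of the secondary pulse compared with the same well before compound.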

Sequence of human ether-à-go-go-related gene (hERG) potassium channel (Q12809 whole entry, looked up): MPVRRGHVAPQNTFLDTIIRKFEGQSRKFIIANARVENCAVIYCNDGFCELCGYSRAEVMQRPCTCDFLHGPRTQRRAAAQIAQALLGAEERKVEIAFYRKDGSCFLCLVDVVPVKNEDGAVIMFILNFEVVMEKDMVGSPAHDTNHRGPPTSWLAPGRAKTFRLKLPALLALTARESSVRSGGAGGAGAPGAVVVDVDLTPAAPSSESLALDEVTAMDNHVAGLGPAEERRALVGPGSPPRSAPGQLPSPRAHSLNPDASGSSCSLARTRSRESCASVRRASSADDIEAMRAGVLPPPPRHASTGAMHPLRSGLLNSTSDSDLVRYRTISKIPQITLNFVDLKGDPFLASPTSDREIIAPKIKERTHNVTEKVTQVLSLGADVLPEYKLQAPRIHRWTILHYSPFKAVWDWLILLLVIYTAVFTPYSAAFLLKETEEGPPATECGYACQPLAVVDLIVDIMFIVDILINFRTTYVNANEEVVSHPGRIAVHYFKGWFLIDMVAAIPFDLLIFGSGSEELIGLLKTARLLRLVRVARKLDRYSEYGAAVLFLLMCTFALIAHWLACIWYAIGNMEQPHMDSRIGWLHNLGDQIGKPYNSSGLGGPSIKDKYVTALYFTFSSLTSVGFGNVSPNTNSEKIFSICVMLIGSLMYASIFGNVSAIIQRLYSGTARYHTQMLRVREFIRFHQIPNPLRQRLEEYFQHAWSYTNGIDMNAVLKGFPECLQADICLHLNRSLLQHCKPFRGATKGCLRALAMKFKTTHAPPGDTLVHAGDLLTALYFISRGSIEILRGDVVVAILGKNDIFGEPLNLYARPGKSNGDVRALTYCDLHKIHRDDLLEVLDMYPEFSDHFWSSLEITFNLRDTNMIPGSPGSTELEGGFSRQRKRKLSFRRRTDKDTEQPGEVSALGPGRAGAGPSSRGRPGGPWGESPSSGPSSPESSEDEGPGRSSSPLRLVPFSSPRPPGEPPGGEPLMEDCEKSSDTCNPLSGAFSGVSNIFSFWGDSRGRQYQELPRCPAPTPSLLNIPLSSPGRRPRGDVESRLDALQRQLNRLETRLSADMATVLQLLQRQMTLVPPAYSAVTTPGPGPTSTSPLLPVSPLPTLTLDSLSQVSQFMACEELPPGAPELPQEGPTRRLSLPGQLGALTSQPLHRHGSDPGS

Compound	hERG current change (%, negative = inhibition) at 10uM
COc1cc(C(=O)NC2CCN(CC(=O)NC3CCCCC3)CC2)cc(OC)c1OC	19.1%
Cc1cc(C)cc(N(CC(=O)NCc2ccco2)C(=O)CCC(=O)Nc2nccs2)c1	9.91%
Cc1cccc(C(=O)NCC(=O)N2CCN(S(=O)(=O)/C=C/c3ccccc3)CC2)c1	-18.5%
CS(=O)(=O)Nc1ccccc1C(=O)N1CCN(c2ccccc2)CC1	-0.636%
CCOC(=O)/C=C(C)\C=C\c1c[nH]c2ccccc12	11.1%
CSc1ccc(CN(C)CC(=O)NC(=O)NC(C)(C)C)cc1	-3.83%
O=C(NCCc1ccc(Cl)cc1)c1cccnc1	8.12%
NC(=O)c1cc([N+](=O)[O-])ccc1NCC1CCCCC1	-5.28%
O=C(/C=C/c1ccccc1)NNC(=O)C1CC1	-4.48%
N#C/C(=C/c1cn(CC(=O)O)c2ccccc12)C(=O)NCc1ccccc1	16.1%
CN1CCc2nc3sc(C#N)c(N)c3c(-c3cccs3)c2C1	-56.8%
CC(O)C(O)C(O)C(O)/C=N/NC(=O)c1ccccc1 (centres unmarked)	4.37%
CN(C)C(CNC(=O)c1cccs1)c1ccco1 (centres unmarked)	0.144%
CCCCn1c(CN2CCN(C)CC2)nc2ccccc21	-67.1%
CCC(OC(=O)c1cccs1)C(=O)NCc1ccc2c(c1)OCO2 (centres unmarked)	0.891%
COc1ccc(-n2nc(C(=O)NCC(=O)N(C)Cc3ccccc3)c3ccccc3c2=O)cc1	-8.21%
O=C(COc1ccc(Br)cc1)N(Cc1ccccc1)c1ccccn1	-30.6%
NC(=O)Cc1ccc2c(c1)[nH]c1ccccc12	29.4%
COc1ccc(CC(=O)NCc2ccccc2)cc1	11.6%
Cc1noc(C)c1C(=O)Nc1nnc(CC(C)C)s1	-1.01%
O=C(c1ccccc1F)N(Cc1nc2ccccc2c(=O)[nH]1)C1CCCC1	16.8%
CC1CCCC(NC(=O)Cn2cc([N+](=O)[O-])ccc2=O)C1C (centres unmarked)	2.74%
CCOC(=O)N1CCC(N2C(=O)c3ccccc3C2Nc2ccc(S(=O)(=O)N(CC)CC)cc2)CC1 (centres unmarked)	-62.6%

Compound	hERG current change (%, negative = inhibition) at 10uM
Cc1ccc(Nc2c3c(nc4ncnn24)CCC3)cc1	-6.68%
COC(=O)c1[nH]c2ccc(C)cc2c1NC(=O)CN1CCC(C)CC1	-8.97%
CCCN1Cc2cccc(C(N)=O)c2C1=O	8.93%
O=C(NC1CCCCCC1)C1CCN(C(=O)Cc2ccccc2)CC1	8.14%
CC(C)N1C(=O)/C(=C\c2nc3ccccc3c(=O)n2-c2ccccc2)c2ccccc21	4.14%
C/C(N)=C(/C#N)C(=O)CSc1nnc(Nc2cccc(C)c2)s1	6.59%
C=C(C)CNC(=S)N/N=C/c1ccc(NC(C)=O)cc1	0.277%
CN(C)N1C(N)=C(C#N)C(c2ccccc2Cl)C2=C1CCCC2=O (centres unmarked)	8.99%
CCN(CC)CCn1c(NC(=O)c2ccccc2O)nc2ccccc21	-68%
Cc1ccccc1C(=O)Nc1ccc(-c2nc3ccc(C(=O)c4ccccc4)cc3[nH]2)cc1	20.3%
COc1cccc(C2=NOC(C(=O)NCc3cccnc3)C2)c1 (centres unmarked)	35.6%
O=C(CCSc1ccccc1)NC1CCCC1	-0.125%
CC(C)Nc1nc(NC(C)C)nc(SCCOC(=O)Nc2ccc(Cl)cc2Cl)n1	7.75%
COc1ccc(OCC(O)CNC(=O)Nc2ccc(F)cc2)cc1 (centres unmarked)	-15.5%
COCCN1Cc2cccc(C(=O)NCc3cccs3)c2C1=O	-7.13%
COc1ccc(OCCCCOc2ccccc2Cl)cc1	15.7%
CC(=O)c1ccccc1NC(=O)COC(=O)/C(=C/c1ccccc1)n1nnnc1C	7.2%
COc1ccc2cc(CCNS(=O)(=O)c3ccc(NC(C)=O)cc3)c(=O)[nH]c2c1	-9.19%
O=C(O)c1[nH]c2ccccc2c1-c1ccccc1	-2.08%
O=S(=O)(NCc1ccc(F)cc1)c1ccc(-n2cnnn2)cc1	-1.08%
CC(Nc1oc(-c2ccco2)nc1C#N)c1ccccc1 (centres unmarked)	0.139%
CCCC(CCC)C(=O)Nc1ccc2c(c1)N(C(=O)CN1CCN(C)CC1)c1ccccc1CC2	10.8%
COC(=O)c1ccccc1OS(=O)(=O)N(C)C	12.2%

Compound	hERG current change (%, negative = inhibition) at 10uM
COc1cc(-c2cc(OC)c3c(C)oc(C)c3c(=O)c2)ccc1O	-3.77%
O=C(CCN1CCN(CC(=O)Nc2ccccc2F)CC1)Nc1ccccc1F	-65.4%
CCc1nc2nc(C)c(NS(=O)(=O)c3ccc(C4CCCCC4)cc3)c(=O)n2[nH]1	17.5%
CCSc1nnc(N(CCC(=O)O)CCC(=O)O)s1	1.68%
CCOC(=O)c1c(C)[nH]c(C)c1C(=O)CSc1nc2ccccc2[nH]1	8.29%
Cc1[nH]nc2c1C1(CCOC1C)C(C#N)=C(N)O2 (centres unmarked)	6.48%
c1ccc(-c2n[nH]c3ccccc23)cc1	8.84%
COc1ccc(OC)c(NC(=O)C(=O)c2cn(CC(=O)N3CCCC3)c3ccccc23)c1	16.3%
Cc1cc(NC(=O)CN2CCN(c3ccc(O)cc3)CC2)no1	-4.58%
O=C(NCC(c1ccco1)N1CCCC1)c1ccc(S(=O)(=O)Nc2ccccc2Cl)cc1 (centres unmarked)	-11.6%
CCOc1cc(-c2cc(-c3ccc(OC)cc3)nc(N)c2C#N)ccc1O	-11.8%
CCNC(=O)CSc1nnc(CN2CCCCCC2=O)n1-c1ccccn1	21.5%
O=C(CN1CCN(CC(=O)Nc2cccc(F)c2)CC1)Nc1ccc(-c2ccccc2)cc1	-28.6%
Cc1ccc(C)c(S(=O)(=O)/N=C2\C=C(NS(=O)(=O)c3ccccc3)C(=O)c3ccccc32)c1	7.4%
CCOc1ccc(CCNC(=O)C2CCN(S(=O)(=O)N3CCC(C)CC3)CC2)cc1OCC	-4.28%
COc1ccc(Br)cc1CSC(=N)N.Cl	-9.13%
Cl.O=c1[nH]oc2c1CCNC2	15%
Cc1c(C)c2c(OCC(=O)NCCCO)cc3c(c2oc1=O)CCC(C)(C)O3	2.18%
CCCCCc1nc2sc3c(c2c(=O)n1N)CCC3	6.53%
CC(=O)Nc1nc2ccccc2n1Cc1ccccc1Cl	-2.73%
O=C(NNC(=O)c1ccccc1F)c1cccc(Cl)c1	11.5%
Cc1cc(C)c(C)c(S(=O)(=O)N2CCCN(C)CC2)c1C	12.7%
O=c1cc(Cl)c(-c2ccccc2)n[nH]1	11%

Compound	hERG current change (%, negative = inhibition) at 10uM
Cc1ccc(C)c(NC(=O)COc2coc(CN3CCc4ccccc43)cc2=O)c1	1.1%
COc1ccc(S(=O)Cc2ccc(C(=O)NCc3cccc(OC)c3)o2)cc1 (centres unmarked)	14%
OCCN1CCN(c2nc(-c3ccccc3)c3cc(Cl)ccc3n2)CC1	-26.2%
COn1c2c(c3c4nonc4ccc31)CCCC2	-10.4%
NC(=O)Nc1ccc(C(=O)N2CCN(S(=O)(=O)Cc3ccccc3)CC2)cc1	-6.86%
Cn1c2c(c(=O)n(C)c1=O)C(c1ccc(Cl)cc1)C(C#N)=C(N)O2 (centres unmarked)	-18.7%
CS(=O)(=O)N(Cc1ccccc1)c1ccc(C(=O)Nc2cccnc2)cc1	-5.96%
COc1ccc(Nc2cc(=O)n(C3CCCCC3)c(=O)[nH]2)c(OC)c1	2.89%
COC(=O)c1ccc(NC(=O)COc2coc(CN3CCc4ccccc43)cc2=O)cc1	-1.38%
CCN=c1scc(-c2ccc(F)cc2)n1/N=C/c1ccccn1	-0.313%
CCCCc1nc(Cl)c(C#N)c2c1CCCC2	-14.7%
N#Cc1c(-c2ccco2)cc(-c2ccccn2)nc1N	6.62%
O=C(COc1cc2oc(=O)c3c(c2cc1Cl)CCC3)NCc1ccncc1	1.53%
Cn1c(SCC(=O)NC(C)(C)C)nnc1-c1cccc(NC(=O)c2ccccc2F)c1	-4.75%
CCCC[N+]12CCC(CC1)C(=C(c1ccccc1)c1ccccc1)C2.[Br-]	-72.4%
CCN(C(=O)COC(=O)CSc1ccc(C(N)=O)cc1[N+](=O)[O-])C1CCCCC1	5.86%
CCOC(=O)CNC(=O)CSc1nnc(-c2ccccc2)c(-c2ccccc2)n1	5.02%
COc1ccc(CNC(=O)CN2C(=O)CSc3ccc(S(=O)(=O)N4CCOCC4)cc32)c(OC)c1	-31.7%
O=C(Nc1ccnn1C1CCN(CCCC2CCCC2)CC1)c1ccccc1Cl	-86.4%
CSc1ccc(NC(=O)NCc2cccnc2)cc1	-9.64%
Cn1c(C(=O)N2CCc3ccccc3C2)cc2oc3ccccc3c21	18.5%
COc1ccc(NC(=O)CSCC(=O)N=c2sccn2C)cc1	11%
CCC(/C=N/NC(=O)C(N)=O)CC	24.5%
